Reference: patent US20220213213A1 (published 2022)

Tests used:
[1] = target: T1, 5T4-Fc (obtained from Peter L. Stern, University of Manchester) (human, UniProt Q13641 32-355); assay: dual ELISA: coated 5T4-Fc, detection with CD137-bio
T1 construct: also called h5T4-Fc; recombinant 5T4; not shown: Fc part not specified
T1 sequence (looked up): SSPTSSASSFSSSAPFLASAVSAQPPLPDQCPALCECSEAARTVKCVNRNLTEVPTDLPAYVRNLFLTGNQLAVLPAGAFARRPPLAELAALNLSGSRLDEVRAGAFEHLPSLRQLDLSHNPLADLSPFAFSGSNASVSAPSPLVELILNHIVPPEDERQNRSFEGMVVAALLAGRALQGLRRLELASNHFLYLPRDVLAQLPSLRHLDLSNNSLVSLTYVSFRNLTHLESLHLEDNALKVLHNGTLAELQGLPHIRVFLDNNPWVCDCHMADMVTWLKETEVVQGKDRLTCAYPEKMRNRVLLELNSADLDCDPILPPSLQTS
Description: Plates (#655074, Greiner Bio-One GmbH, Germany) were pre-coated with 0.5 μg/ml 5T4-Fc (obtained from Professor Peter Stern, University of Manchester) overnight. CD137-5T4 bsAb were diluted from 8 to 2×10⁻³ μg/ml in 1:4 dilutions and added in duplicates of 50 μl to each well. CD137-bio (Ancell #502-030) was used as detection antibody at 0.5 μg/ml and the binding was detected with Streptavidin-HRP (Pierce #21126). The ELISA was developed with SuperSignal ELISA PICO Chemiluminescent substrate (Thermo Scientific Pierce, Rockford, Ill. USA) during 2-10 minutes and read in an automated microplate based multi-detection reader (FLUOstar OPTIMA, Netherlands).

[2] = target: biotinylated CD137 (UniProt Q07011 24-186, limits assumed, biotinylated); assay: SPR MASS-1, biotinylated antigen on chip, bsAb injected
Sequence of UniProt Q07011 (Q07011 24-186 limits assumed): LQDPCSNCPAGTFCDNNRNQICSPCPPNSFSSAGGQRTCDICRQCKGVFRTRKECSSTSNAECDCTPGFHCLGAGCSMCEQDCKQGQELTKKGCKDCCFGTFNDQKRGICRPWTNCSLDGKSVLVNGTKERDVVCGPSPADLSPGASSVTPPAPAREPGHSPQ

[3] = target: T2, 5T4 on the SPR chip (amine-coupled on Biacore; biotinylated on MASS-1) (UniProt Q13641 32-355, limits assumed, biotinylated in the MASS-1 assays); assay: as above
T2 construct: also called biotinylated 5T4
T2 sequence (looked up): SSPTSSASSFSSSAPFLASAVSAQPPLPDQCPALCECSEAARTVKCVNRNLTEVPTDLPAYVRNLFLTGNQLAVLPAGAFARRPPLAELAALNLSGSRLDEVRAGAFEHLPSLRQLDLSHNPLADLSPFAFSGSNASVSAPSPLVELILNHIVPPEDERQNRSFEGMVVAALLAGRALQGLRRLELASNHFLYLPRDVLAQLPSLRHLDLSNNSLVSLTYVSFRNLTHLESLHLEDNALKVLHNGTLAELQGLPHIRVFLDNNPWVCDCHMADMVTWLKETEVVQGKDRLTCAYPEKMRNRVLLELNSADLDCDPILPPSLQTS

Binder | EC50 [1] [pM] | Kd [2] [pM] | koff [2] [s⁻¹] | kon [2] [M⁻¹ s⁻¹] | Kd [3] [pM] | koff [3] [s⁻¹] | kon [3] [M⁻¹ s⁻¹]
1618-1210 (bispecific antibody) heavy: EVQLLESGGGLVQPGGSLRLSCAASGFTFSYGSMYWVRQAPGKGLEWVSSISSGSGSTYYADSVKGRFTISRDNSKNTLYLQMNSLRAEDTAVYYCARSSYYGSYYSIDYWGQGTLVTVSS[no letters for human IgG1 constant region with changes]GGGGSGGGGS[no letters for about 100 residues]YYGGYYSAWMDYWGQGTLVTVSSGGGGSGGGGSGGGGSDIQMTQSPSSLSASVGDRVTITCRASQSISSYLNWYQQKPGKAPKLLIYAASSLQSGVPSRFSGSGSGTDFTLTISSLQPEDFATYYCQQTYGYLHTFGQGTKLEIK light: DIQMTQSPSSLSASVGDRVTITCRASQSISSYLNWYQQKPGKAPKLLIYAASSLQSGVPSRFSGSGSGTDFTLTISSLQPEDFATYYCQQYYDNLPTFGQGTKLEIKRTVAAPSVFIFPPSDEQLKSGTASVVCLLNNFYPREAKVQWKVDNALQSGNSQESVTEQDSKDSTYSLSSTLTLSKADYEKHKVYACEVTHQGLSSPVTKSFNRGEC | 200 | 129 | 0.000162 | 1.26e+06 | 937 | 0.000455 | 486000
1212-1202 (bispecific antibody) heavy: EVQLLESGGGLVQPGGSLRLSCAASGFTFSSYAMSWVRQAPGKGLEWVSYISSYGGYTSYADSVKGRFTISRDNSKNTLYLQMNSLRAEDTAVYYCARYHSGVLDYWGQGTLVTVSS[no letters for human IgG1 constant region with changes]GGGGSGGGGSEVQLLESGGGLVQPGGSLRLSCAASGFTFYGSSMSWVRQAPGKGLEWVSSIYYGSSGTYYADSVKGRFTISRDNSKNTLYLQMNSLRAEDTAVYYCARSYYGYFDYWGQGTLVTVSSGGGGSGGGGSGGGGSDIQMTQSPSSLSASVGDRVTITCRASQSISSYLNWYQQKPGKAPKLLIYAASSLQSGVPSRFSGSGSGTDFTLTISSLQPEDFATYYCQQYYTVVPFTFGQGTKLEIK light: DIQMTQSPSSLSASVGDRVTITCRASQSISSYLNWYQQKPGKAPKLLIYAASSLQSGVPSRFSGSGSGTDFTLTISSLQPEDFATYYCQQYYYHYLLTFGQGTKLEIKRTVAAPSVFIFPPSDEQLKSGTASVVCLLNNFYPREAKVQWKVDNALQSGNSQESVTEQDSKDSTYSLSSTLTLSKADYEKHKVYACEVTHQGLSSPVTKSFNRGEC | 570 | – | – | – | – | – | –
1212-1204 (bispecific antibody) heavy: EVQLLESGGGLVQPGGSLRLSCAASGFTFSSYAMSWVRQAPGKGLEWVSYISSYGGYTSYADSVKGRFTISRDNSKNTLYLQMNSLRAEDTAVYYCARYHSGVLDYWGQGTLVTVSS[no letters for human IgG1 constant region with changes]GGGGSGGGGSEVQLLESGGGLVQPGGSLRLSCAASGFTFSSYYMGWVRQAPGKGLEWVSGIGSYYGYTGYADSVKGRFTISRDNSKNTLYLQMNSLRAEDTAVYYCARAYYDYNYYYAYFDYWGQGTLVTVSSGGGGSGGGGSGGGGSDIQMTQSPSSLSASVGDRVTITCRASQSISSYLNWYQQKPGKAPKLLIYAASSLQSGVPSRFSGSGSGTDFTLTISSLQPEDFATYYCQQSVPHYPFTFGQGTKLEIK light: DIQMTQSPSSLSASVGDRVTITCRASQSISSYLNWYQQKPGKAPKLLIYAASSLQSGVPSRFSGSGSGTDFTLTISSLQPEDFATYYCQQYYYHYLLTFGQGTKLEIKRTVAAPSVFIFPPSDEQLKSGTASVVCLLNNFYPREAKVQWKVDNALQSGNSQESVTEQDSKDSTYSLSSTLTLSKADYEKHKVYACEVTHQGLSSPVTKSFNRGEC | 270 | – | – | – | – | – | –
1212-1214 (bispecific antibody) heavy: EVQLLESGGGLVQPGGSLRLSCAASGFTFSSYAMSWVRQAPGKGLEWVSYISSYGGYTSYADSVKGRFTISRDNSKNTLYLQMNSLRAEDTAVYYCARYHSGVLDYWGQGTLVTVSS[no letters for human IgG1 constant region with changes]GGGGSGGGGSEVQLLESGGGLVQPGGSLRLSCAASGFTFSSYAMSWVRQAPGKGLEWVSSIGSGGGYTGYADSVKGRFTISRDNSKNTLYLQMNSLRAEDTAVYYCARVGHPFDYWGQGTLVTVSSGGGGSGGGGSGGGGSDIQMTQSPSSLSASVGDRVTITCRASQSISSYLNWYQQKPGKAPKLLIYAASSLQSGVPSRFSGSGSGTDFTLTISSLQPEDFATYYCQQDAYPHTFGQGTKLEIK light: DIQMTQSPSSLSASVGDRVTITCRASQSISSYLNWYQQKPGKAPKLLIYAASSLQSGVPSRFSGSGSGTDFTLTISSLQPEDFATYYCQQYYYHYLLTFGQGTKLEIKRTVAAPSVFIFPPSDEQLKSGTASVVCLLNNFYPREAKVQWKVDNALQSGNSQESVTEQDSKDSTYSLSSTLTLSKADYEKHKVYACEVTHQGLSSPVTKSFNRGEC | 790 | – | – | – | – | – | –
1618-1208 (bispecific antibody) chain 1: not shown chain 2: DIQMTQSPSSLSASVGDRVTITCRASQSISSYLNWYQQKPGKAPKLLIYAASSLQSGVPSRFSGSGSGTDFTLTISSLQPEDFATYYCQQYYDNLPTFGQGTKLEIKRTVAAPSVFIFPPSDEQLKSGTASVVCLLNNFYPREAKVQWKVDNALQSGNSQESVTEQDSKDSTYSLSSTLTLSKADYEKHKVYACEVTHQGLSSPVTKSFNRGEC | – | 116 | 0.000109 | 940000 | – | – | –
